# In the supplement of paper PMC8728848:
# The other results are listed elsewhere or left out.
# B1: Sebin1 (Coprinopsis cinerea), A8PEE3 (protein)
# chain: MTSPFYAHIHNVQDDNTWRFTLIFANRATADEWWRAISEAPANTSIAKSITRVTPQYYTHDVNIWNIWNFFADGNIKSISERFRGRLFIVLENDRGGRGITVIPPVPIVDHVSGNWFYIRSKTAPHLFWYYDERRSSIYASKEKRTRFKISIRNPSSQTPKNAIMINTDDVTIHIKENLYVGVDNNLGHIIPTRAYRTFKFGELESGAIAGFDVVENIEERCSSTFDGASLSISGPDSSSPGEPWELV
# How the values were obtained:
# Experiment in all cases: glycan array binding signal (z-score within array); higher = stronger binding
# Conditions in all cases: glycan notation: IUPAC condensed, linker removed
# [1] = molecular target: Neu5Ac(a2-3)Gal(b1-3)[Neu5Ac(a2-6)]GlcNAc(b1-3)[Fuc(a1-3)[Gal(b1-4)]GlcNAc(b1-6)]Gal(b1-4)Glc
# How it was run: (§1)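 Glycan array data came from 3228 arrays in the Consortium for Functional Glycomics database, and only arrays with an available protein sequence were kept. Glycan names were put into IUPAC-condensed notation, and columns mapping to the same glycan were averaged. The binding signal is a within-array Z-score, averaged across arrays of one protein sequence run at different concentrations or buffers and across linkers. A negative Z-score can be read as non-binding.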
# [2] = molecular target: Neu5Ac(a2-3)Gal(b1-3)]Neu5Ac(a2-3)Gal(b1-4)]GlcNAc
# How it was run: as §1
# Neu5Ac(a2-3)Gal(b1-4)Glc = molecular target: Neu5Ac(a2-3)Gal(b1-4)Glc
# How it was run: as §1
# [3] = molecular target: Neu5Ac(a2-3)Gal(b1-4)GlcNAc
# How it was run: as §1
# [4] = molecular target: Neu5Ac(a2-3)Gal(b1-4)GlcNAc(b1-2)Man
# How it was run: as §1
# [5] = molecular target: Neu5Ac(a2-3)Gal(b1-4)GlcNAc(b1-2)Man(a1-3)[GlcNAc(b1-4)][Neu5Ac(a2-3)Gal(b1-4)GlcNAc(b1-2)Man(a1-6)]Man(b1-4)GlcNAc(b1-4)GlcNAc
# How it was run: as §1
# [6] = molecular target: Neu5Ac(a2-3)Gal(b1-4)GlcNAc(b1-2)Man(a1-3)[Neu5Ac(a2-3)Gal(b1-4)GlcNAc(b1-2)Man(a1-6)]Man(b1-4)GlcNAc(b1-4)GlcNAc
# How it was run: as §1
# [7] = molecular target: Neu5Ac(a2-3)Gal(b1-4)GlcNAc(b1-2)Man(a1-3)[Neu5Ac(a2-3)Gal(b1-4)GlcNAc(b1-2)Man(a1-6)]Man(b1-4)GlcNAc(b1-4)[Fuc(a1-6)]GlcNAc
# How it was run: as §1
# [8] = molecular target: Neu5Ac(a2-3)Gal(b1-4)GlcNAc(b1-2)Man(a1-3)[Neu5Ac(a2-6)Gal(b1-4)GlcNAc(b1-2)Man(a1-6)]Man(b1-4)GlcNAc(b1-4)GlcNAc
# How it was run: as §1
# [9] = molecular target: Neu5Ac(a2-3)Gal(b1-4)GlcNAc(b1-2)[Neu5Ac(a2-3)Gal(b1-4)GlcNAc(b1-4)]Man(a1-3)[GlcNAc(b1-4)][Neu5Ac(a2-3)Gal(b1-4)GlcNAc(b1-2)[Neu5Ac(a2-3)Gal(b1-4)GlcNAc(b1-6)]Man(a1-6)]Man(b1-4)GlcNAc(b1-4)GlcNAc
# How it was run: as §1
# [10] = molecular target: Neu5Ac(a2-3)Gal(b1-4)GlcNAc(b1-2)[Neu5Ac(a2-3)Gal(b1-4)GlcNAc(b1-4)]Man(a1-3)[GlcNAc(b1-4)][Neu5Ac(a2-3)Gal(b1-4)GlcNAc(b1-4)Man(a1-6)]Man(b1-4)GlcNAc(b1-4)GlcNAc
# How it was run: as §1
# [11] = molecular target: Neu5Ac(a2-3)Gal(b1-4)GlcNAc(b1-2)[Neu5Ac(a2-3)Gal(b1-4)GlcNAc(b1-6)]Man(a1-6)[Neu5Ac(a2-3)Gal(b1-4)GlcNAc(b1-2)Man(a1-3)][GlcNAc(b1-4)]Man(b1-4)GlcNAc(b1-4)GlcNAc
# How it was run: as §1
# [12] = molecular target: Neu5Ac(a2-3)Gal(b1-4)GlcNAc(b1-3)Gal
# How it was run: as §1
# [13] = molecular target: Neu5Ac(a2-3)Gal(b1-4)GlcNAc(b1-3)Gal(b1-3)GlcNAc
# How it was run: as §1
# [14] = molecular target: Neu5Ac(a2-3)Gal(b1-4)GlcNAc(b1-3)Gal(b1-4)GlcNAc
# How it was run: as §1
# [15] = molecular target: Neu5Ac(a2-3)Gal(b1-4)GlcNAc(b1-3)Gal(b1-4)GlcNAc(b1-2)Man(a1-3)[Neu5Ac(a2-3)Gal(b1-4)GlcNAc(b1-3)Gal(b1-4)GlcNAc(b1-2)Man(a1-6)]Man(b1-4)GlcNAc(b1-4)GlcNAc
# How it was run: as §1
# [16] = molecular target: Neu5Ac(a2-3)Gal(b1-4)GlcNAc(b1-3)Gal(b1-4)GlcNAc(b1-3)Gal(b1-4)GlcNAc
# How it was run: as §1
# [17] = molecular target: Neu5Ac(a2-3)Gal(b1-4)GlcNAc(b1-3)Gal(b1-4)GlcNAc(b1-3)Gal(b1-4)GlcNAc(b1-2)Man(a1-3)[Neu5Ac(a2-3)Gal(b1-4)GlcNAc(b1-3)Gal(b1-4)GlcNAc(b1-3)Gal(b1-4)GlcNAc(b1-2)Man(a1-6)]GalNAc
# How it was run: as §1
# [18] = molecular target: Neu5Ac(a2-3)Gal(b1-4)GlcNAc(b1-3)Gal(b1-4)GlcNAc(b1-3)GalNAc
# How it was run: as §1
# [19] = molecular target: Neu5Ac(a2-3)Gal(b1-4)GlcNAc(b1-3)Gal(b1-4)GlcNAc(b1-3)[Neu5Ac(a2-3)Gal(b1-4)GlcNAc(b1-3)Gal(b1-4)GlcNAc(b1-6)]GalNAc
# How it was run: as §1
# [20] = molecular target: Neu5Ac(a2-3)Gal(b1-4)GlcNAc(b1-3)Gal(b1-4)GlcNAc(b1-6)[Gal(b1-3)]GalNAc
# How it was run: as §1
# [21] = molecular target: Neu5Ac(a2-3)Gal(b1-4)GlcNAc(b1-3)Gal(b1-4)[Fuc(a1-3)]GlcNAc
# How it was run: as §1
# [22] = molecular target: Neu5Ac(a2-3)Gal(b1-4)GlcNAc(b1-3)GalNAc
# How it was run: as §1
# [23] = molecular target: Neu5Ac(a2-3)Gal(b1-4)GlcNAc(b1-3)[Neu5Ac(a2-3)Gal(b1-4)GlcNAc(b1-6)]GalNAc
# How it was run: as §1
# [24] = molecular target: Neu5Ac(a2-3)Gal(b1-4)GlcNAc(b1-6)GalNAc
# How it was run: as §1
# [25] = molecular target: Neu5Ac(a2-3)Gal(b1-4)GlcNAc(b1-6)[Gal(b1-3)]GalNAc
# How it was run: as §1
# [26] = molecular target: Neu5Ac(a2-3)Gal(b1-4)GlcNAc(b1-6)[Neu5Ac(a2-3)Gal(b1-3)]GalNAc
# How it was run: as §1
# [27] = molecular target: Neu5Ac(a2-3)Gal(b1-4)GlcNAc6S
# How it was run: as §1
# [28] = molecular target: Neu5Ac(a2-3)Gal(b1-4)[Fuc(a1-3)]GlcNAc
# How it was run: as §1
# [29] = molecular target: Neu5Ac(a2-3)Gal(b1-4)[Fuc(a1-3)]GlcNAc(b1-2)Man
# How it was run: as §1
# [30] = molecular target: Neu5Ac(a2-3)Gal(b1-4)[Fuc(a1-3)]GlcNAc(b1-3)Gal
# How it was run: as §1
# [31] = molecular target: Neu5Ac(a2-3)Gal(b1-4)[Fuc(a1-3)]GlcNAc(b1-3)Gal(b1-4)GlcNAc
# How it was run: as §1
# [32] = molecular target: Neu5Ac(a2-3)Gal(b1-4)[Fuc(a1-3)]GlcNAc(b1-3)Gal(b1-4)[Fuc(a1-3)]GlcNAc(b1-3)Gal(b1-4)[Fuc(a1-3)]GlcNAc
# How it was run: as §1
# [33] = molecular target: Neu5Ac(a2-3)Gal(b1-4)[Fuc(a1-3)]GlcNAc(b1-3)GalNAc
# How it was run: as §1
# [34] = molecular target: Neu5Ac(a2-3)Gal(b1-4)[Fuc(a1-3)]GlcNAc(b1-6)[Gal(b1-3)]GalNAc
# How it was run: as §1
# [35] = molecular target: Neu5Ac(a2-3)Gal(b1-4)[Fuc(a1-3)]GlcNAc(b1-6)[Neu5Ac(a2-3)Gal(b1-3)]GalNAc
# How it was run: as §1
# [36] = molecular target: Neu5Ac(a2-3)Gal(b1-4)[Fuc(a1-3)]GlcNAc6S
# How it was run: as §1
# [37] = molecular target: Neu5Ac(a2-3)Gal6S(b1-4)GlcNAc
# How it was run: as §1
binder,measurement,setting,value
B1,glycan array binding signal (z-score),[1],-0.727
same,glycan array binding signal (z-score),[2],-0.267
same,glycan array binding signal (z-score),Neu5Ac(a2-3)Gal(b1-4)Glc,3.86
same,glycan array binding signal (z-score),[3],-0.825
same,glycan array binding signal (z-score),[4],1.15
same,glycan array binding signal (z-score),[5],-0.182
same,glycan array binding signal (z-score),[6],-0.723
same,glycan array binding signal (z-score),[7],-0.34
same,glycan array binding signal (z-score),[8],0.208
same,glycan array binding signal (z-score),[9],-0.063
same,glycan array binding signal (z-score),[10],-0.161
same,glycan array binding signal (z-score),[11],-0.093
same,glycan array binding signal (z-score),[12],-0.176
same,glycan array binding signal (z-score),[13],-0.415
same,glycan array binding signal (z-score),[14],-0.525
same,glycan array binding signal (z-score),[15],-0.107
same,glycan array binding signal (z-score),[16],-0.018
same,glycan array binding signal (z-score),[17],-0.305
same,glycan array binding signal (z-score),[18],-0.167
same,glycan array binding signal (z-score),[19],0.416
same,glycan array binding signal (z-score),[20],0.023
same,glycan array binding signal (z-score),[21],0.176
same,glycan array binding signal (z-score),[22],-0.212
same,glycan array binding signal (z-score),[23],-0.611
same,glycan array binding signal (z-score),[24],0.774
same,glycan array binding signal (z-score),[25],2.49
same,glycan array binding signal (z-score),[26],-0.249
same,glycan array binding signal (z-score),[27],-0.472
same,glycan array binding signal (z-score),[28],-0.207
same,glycan array binding signal (z-score),[29],0.27
same,glycan array binding signal (z-score),[30],0.029
same,glycan array binding signal (z-score),[31],-0.611
same,glycan array binding signal (z-score),[32],0.043
same,glycan array binding signal (z-score),[33],-0.864
same,glycan array binding signal (z-score),[34],0.053
same,glycan array binding signal (z-score),[35],0.95
same,glycan array binding signal (z-score),[36],-0.366
same,glycan array binding signal (z-score),[37],0.113
